± gives the uncertainty stated by the source. Whole data set: some 9,900 compounds, median “viability index relative to DMSO control” near 1, cut for the lowest 2% near 0.85. Some of the results follow.
System: Plasmodium falciparum NF54 stage V gametocytes
Assay: viability index relative to DMSO control (fraction); higher = less gametocyte killing
Details: 2.5 µM, incubation time: 72 h
Procedure, shortened: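 Viability index is the count of red-stained particles in a well divided by the plate mean of solvent-only wells. Particles of 20–70 µm2 were counted in one imaged field per well after one to two hours with 3 µl of 2.5 µM MitoTracker Red CMXRos and 0.13% saponin. Before staining, P. falciparum NF54 stage V gametocytes in serum-free medium (0.75% gametocytemia, 1.25% hematocrit, 10 µl, 1,536-well plates) were kept with compound at 2.5 µM for 72 hr at 37°C under low oxygen.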

[1] = library set: Broad Institute DOS

Row | SMILES | viability index [1] | viability index (library set: Broad Institute Blood Stage)
1 | C[C@H](NC(=O)C[C@@H]1C=C[C@@H](NC(=O)c2cccnc2)[C@H](CO)O1)c1ccccc1 | 0.915 ± 0.027 | –
2 | CC(C)(C)[S@](=O)N1Cc2cc(C(=O)NCc3ccccn3)nc(-c3cccc(-c4ccccc4F)c3)c2[C@@H]1CCO | 0.955 ± 0.08 | –
3 | O=C(C[C@H]1C=C[C@H](NC(=O)C2CCC2)[C@H](CO)O1)NC1CCCCC1 | 1.03 ± 0.085 | –
4 | O=C(C1CCCCC1)N1CC2(C1)[C@H](c1ccccc1)[C@H](CO)N2C(=O)c1cccnc1 | 0.9886 ± 0.007 | –
5 | CO[C@@H]1CC[C@H]2CCOc3ccc(C#N)cc3C(=O)N(C)C[C@H](c3ccccc3)CC(=O)N(C)C[C@@H]1O2 | 1.022 ± 0.0057 | –
6 | CN(C)C(=O)c1cccc(-c2ccc([C@H]3[C@H]4CNC[C@@H]3N4C(=O)Nc3cccc(Cl)c3)cc2)c1 | 1.11 ± 0.043 | –
7 | C[C@H](CO)N1C[C@H](C)[C@@H](CN(C)C(=O)Nc2ccnc(N3CCOCC3)c2)OCc2cnnn2CCCC1=O | 0.9846 ± 0.0032 | –
8 | C[C@@H]1CN([C@H](C)CO)C(=O)Cc2cc(NS(=O)(=O)c3ccc(Cl)cc3)ccc2O[C@@H]1CN(C)C(=O)Nc1ccc(C(F)(F)F)cc1 | 1.02 ± 0.051 | –
9 | COCC(=O)N1[C@H](CO)[C@H](c2ccc(C#Cc3ccccc3F)cc2)[C@@H]1C#N | 1.04 ± 0.064 | –
10 | COc1ccc(S(=O)(=O)N(C)C[C@H]2OCCCC[C@@H](C)Oc3ccc(NC(=O)Cc4ccccc4)cc3C(=O)N([C@@H](C)CO)C[C@@H]2C)cc1 | 1.07 ± 0.17 | –
11 | COc1ccccc1NC(=O)N1CCCCN2[C@H](CO)[C@@H](c3ccc(-c4cccc(C#N)c4)cc3)[C@H]2C1 | 1.02 ± 0.021 | –
12 | C/C=C/c1ccc2n(c1=O)C[C@@H]1[C@@H](CO)[C@H](C(=O)NCC)N(Cc3cccc(F)c3)[C@H]21.C/C=C\c1ccc2n(c1=O)C[C@@H]1[C@@H](CO)[C@H](C(=O)NCC)N(Cc3cccc(F)c3)[C@H]21 | 0.99 ± 0.091 | –
13 | COc1cccc(C(=O)Nc2ccc3c(c2)C(=O)N(C)[C@H]2CC[C@@H](CC(=O)NCc4ccc(F)cc4)O[C@H]2CO3)c1 | 0.9078 ± 0.0035 | –
14 | CCCNC(=O)N(C)C[C@H]1Oc2cc(C#C[C@@H](C)O)ccc2S(=O)(=O)N([C@@H](C)CO)C[C@H]1C | 0.915 ± 0.15 | –
15 | C[C@@H]1CCCCO[C@@H](CN(C)C(=O)CCCN(C)C)[C@H](C)CN([C@H](C)CO)C(=O)c2cc(NC(=O)Nc3ccc4c(c3)OCO4)ccc2O1 | 1.08 ± 0.012 | –
16 | COc1ccc2c3c([nH]c2c1)[C@H](CO)N(Cc1ccncc1)C[C@]31CN(C1)C(=O)CN(C)C | 1.04 ± 0.071 | –
17 | Cc1ccccc1-c1ccc([C@@H]2[C@@H](CO)N3CCCCN(S(=O)(=O)Cc4ccccc4)C[C@H]23)cc1 | 0.915 ± 0.057 | –

Row | SMILES | viability index [1] | viability index (library set: Broad Institute Blood Stage)
18 | N#C[C@H]1[C@@H](c2ccccc2-c2ccccc2F)[C@H](CO)N1C(=O)C1CCC1 | 1.14 ± 0.18 | –
19 | CCS(=O)(=O)Nc1ccc2c(c1)C(=O)N(C)[C@@H]1CC[C@@H](CC(=O)NCCCN3CCOCC3)O[C@@H]1CO2 | 1.07 ± 0.043 | –
20 | O=C(Cc1ccccn1)N[C@H]1CC[C@H](CCNS(=O)(=O)c2cccc(F)c2)O[C@@H]1CO | 0.969 ± 0.029 | –
21 | Cc1cc(C(=O)Nc2cccc3c2O[C@H](CN(C)C)[C@@H](C)CN([C@@H](C)CO)C3=O)n(C)n1 | 0.95 ± 0.13 | –
22 | O=C(C[C@H]1C[C@@H]2c3cc(NS(=O)(=O)c4ccc(F)cc4)ccc3O[C@@H]2[C@H](CO)O1)NCCN1CCCCC1 | 1.03 ± 0.042 | –
23 | Cc1ccccc1S(=O)(=O)Nc1ccc2c(c1)C(=O)N(C)[C@@H]1CC[C@@H](CC(=O)O)O[C@@H]1CO2 | 1.1 ± 0.13 | –
24 | OC[C@H]1[C@@H](c2ccc(-c3ccc(F)cc3)cc2)[C@@H]2CN(CCC(F)(F)F)CCCCN12 | – | 0.959 ± 0.057
25 | CO[C@H]1CN(C)C(=O)c2ccc(NS(C)(=O)=O)cc2OC[C@@H](C)N(CC2CC2)C[C@@H]1C | 1.04 ± 0.02 | –
26 | C[C@@H]1CCCCO[C@H](CN(C)Cc2ccncc2)[C@H](C)CN([C@@H](C)CO)C(=O)c2cc(NS(=O)(=O)c3ccc(Cl)cc3)ccc2O1 | 1.04 ± 0.012 | –
27 | C[C@@H]1CN([C@H](C)CO)C(=O)CCCn2nncc2CO[C@H]1CN(C)C(=O)c1ccc(N2CCN(C)CC2)cc1 | 1.03 ± 0.024 | –
28 | CCCC#Cc1ccc2c(c1)O[C@H](CN(C)Cc1ccccn1)[C@H](C)CN([C@@H](C)CO)S2(=O)=O | 0.847 ± 0.015 | –
29 | CO[C@@H]1CN(C)C(=O)c2ccc(NS(C)(=O)=O)cc2OC[C@@H](C)N(CC2CC2)C[C@@H]1C | 1.07 ± 0.034 | –
30 | C[C@@H]1CCCCO[C@@H](CN(C)C(=O)C2CCCCC2)[C@H](C)CN([C@@H](C)CO)C(=O)c2cc(NS(=O)(=O)c3ccccc3)ccc2O1 | 1.07 ± 0.034 | –
31 | O=C(C[C@@H]1C=C[C@@H](NC(=O)C2CCC2)[C@H](CO)O1)NC1CCCCC1 | 0.977 ± 0.18 | –
32 | N#C[C@H]1[C@H](c2ccc(C#Cc3ccccc3F)cc2)[C@H](CO)N1C(=O)c1cccnc1 | 1.05 ± 0.026 | –
33 | COc1ccc(C#Cc2ccc3c(c2)[C@H]2[C@H](CCN2S(=O)(=O)c2ccccc2C)[C@@H](CO)N3C)cc1 | 1.07 ± 0.0059 | –
34 | O=C(C[C@H]1CC[C@H]2[C@@H](COC[C@H](O)CN2CC2CCOCC2)O1)NCc1ccc(Cl)cc1 | 1.05 ± 0.046 | –
